# Laboratory results taken from the RNAGym collection of RNA variant scans (doi:10.1073/pnas.2313332121).
# Variants at the background level are over-represented here.
# B1: TPR 5TU (parent)
# chain: GGAUCUUCUCGAUCUAACAAAAAAGACAAAUCUGCCACAAAGCUUGAGAGCAUCUUCGGAUGCAGAGGCGGCAGCCUUCGGUGGCGCGAUAGCGCCAACGUUCUCAACUAUGACACGCAAAACGCGUGCUCCGUUGAAUGGAGUUUAUCAUG
# Variants of: B1
# Assay: polymerase ribozyme fitness, log enrichment relative to wild type (log ratio); higher = more active; in vitro selection for triplet polymerase activity
# Method in brief: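 Each subunit of a heterodimeric triplet polymerase ribozyme was represented by a PCR-built, transcribed mutant library that underwent triplicate single-round in vitro selection with frozen incubation at −7 °C. Extended constructs were recovered by gel excision, streptavidin-bead capture and RT-PCR, and Illumina sequencing of input and output libraries kept genotypes with ≥10 input reads and ≥1 read per output. Fitness is the logarithm of genotype enrichment relative to wild-type enrichment, from inverse-variance-weighted replicate averages, with a logarithm base of 2.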
row,Variant,polymerase ribozyme fitness (log ratio)
1,C32G G58A G84A A107G G124C U130G,≤ -4.2
2,C32G G58C G62C C79G C96U A113C,≤ -4.2
3,C32G G59A G83A A98C A110G,-4.09
4,C32G G59A G86A C125A C149G,≤ -4.2
5,C32G G59C C87G,≤ -4.2
6,C32G G59C U61A U82A G84U U134G G140C,≤ -4.2
7,C32G G65C A73G C76U A106G,≤ -4.2
8,C32G G68A A73G G86A,≤ -4.2
9,C32G G71U C87G,≤ -4.2
10,C32G G81C C87U G88U A91G A107C C114A G141C,≤ -4.2
11,C32G G83A C85G C108G G124A U135G,≤ -4.2
12,C32G G86A G143U,≤ -4.2
13,C32G G88A A106G C114G G140C,≤ -4.2
14,C32G G92A U111G,-4.13
15,C32G G92C A98U A106C G124C,≤ -4.2
16,C32G U33G C43U G83C U111C,≤ -4.2
17,C32G U44A A110U U144G,≤ -4.2
18,C32G U44A C57U A97U,≤ -4.2
19,C32G U44A C96U U145A,≤ -4.2
20,C32G U44A G50A G65C C87U,≤ -4.2
21,C32G U44A U56G C87U U139G,≤ -4.2

row,Variant,polymerase ribozyme fitness (log ratio)
1,C32G U53A C76A C99U,≤ -4.2
2,C32G U53A C79U G140U,-4.06
3,C32G U53A U55G C75A,≤ -4.2
4,C32G U53G U111G,≤ -4.2
5,C32G U55A,-3.78
6,C32G U55A G81U C85G,≤ -4.2
7,C32G U55G C79U C96G,-4.01
8,C32G U56A C76A C85G A89G C131U A137G U151G,≤ -4.2
9,C32G U56C U82C C114U G140A,≤ -4.2
10,C32G U61A G92U C131U,≤ -4.2
11,C32G U101G C125U A150G,≤ -4.2
12,C32G U102G,≤ -4.2
13,C32U,-1.22
14,C32U A37C C76A A89C C95A C96A U127G G133C G141A,≤ -4.2
15,C32U A37C G68A G80A C87U C95G,≤ -4.2
16,C32U A37G G46U U77C G86C A115G A119U,≤ -4.2
17,C32U A37U U56C C95U U145G U148G,≤ -4.2
18,C32U A39U C72A C93U C114G G141A U144C A147G,≤ -4.2
19,C32U A39U U82A C85G G92A U101C G133C,≤ -4.2
20,C32U A40C A52G G59A G88A G92A A115U U151G,≤ -4.2
21,C32U A40C C85A C114U U139C,≤ -4.2

row,Variant,polymerase ribozyme fitness (log ratio)
1,C32U A40G C51A U56A U101A,≤ -4.2
2,C32U A40U C51U C57A C99A U111C,≤ -4.2
3,C32U A41C A52C U82C U90G A107C,≤ -4.2
4,C32U A49C A52G G58U G62C C131G,≤ -4.2
5,C32U A49C G92U C99A A115G A147C,≤ -4.2
6,C32U A60U C69U C85U G100C A119U U130C U148G,≤ -4.2
7,C32U A89U,-2.63
8,C32U C35A G58U C96U C125U,≤ -4.2
9,C32U C35U C99U U101G C118G,≤ -4.2
10,C32U C35U G50C U53A C96A C105U A119C U144G,≤ -4.2
11,C32U C35U U55A G81A U82G C85A,≤ -4.2
12,C32U C36A U55A U77G A91U G140U,-3.95
13,C32U C36U U53A C72U G136A,≤ -4.2
14,C32U C43G C87A C93G C114U,≤ -4.2
15,C32U C51A G58A G83U C96G C116A G117C C125U A138G G143A,≤ -4.2
16,C32U C51G A60U C79U G86A U144C,≤ -4.2
17,C32U C51U C57U G86A U101C G136U,≤ -4.2
18,C32U C54U,-1.22
19,C32U C57G G58U G67A,≤ -4.2
20,C32U C63U A91U C96U A113U G124C,≤ -4.2
21,C32U C69A C85A A89U G141A U144A,≤ -4.2

row,Variant,polymerase ribozyme fitness (log ratio)
1,C32U C69A G84A C96G U111A,≤ -4.2
2,C32U C76A G83U G92C C114U C123A,≤ -4.2
3,C32U C96G,-1.58
4,C32U C103U,-2.66
5,C32U C108G C118U G126C A142C,≤ -4.2
6,C32U G42A A60C A66G A73G C79A G84A C93U C96G A97U C103G,≤ -4.2
7,C32U G42A G59U C75G A106G C116G C131G C132U,≤ -4.2
8,C32U G42U C79G C129A A138G U146C,≤ -4.2
9,C32U G46A C51G U53C G67C G86U U101G A138U,≤ -4.2
10,C32U G46C C85G,≤ -4.2
11,C32U G46C G80C C87G C118G G124A C132G G152C,≤ -4.2
12,C32U G48A U78A A91G C118A,≤ -4.2
13,C32U G48C C63U G65C C87U A91U A121C A150G,≤ -4.2
14,C32U G48C G59A C85G A106C G128A,≤ -4.2
15,C32U G48C G59A G84U U127C,≤ -4.2
16,C32U G50A A110G A115G C131G G133U,≤ -4.2
17,C32U G50C U55A A89G G133C,≤ -4.2
18,C32U G50U C95A C131U G143A U151C,≤ -4.2
19,C32U G59A G80A U90G G92A C125U G133A A138G G152A,≤ -4.2
20,C32U G59C A89C G94C,-3.87
